Test results from PubChem BioAssay AID938 (National Center for Advancing Translational Sciences (NCATS), 2007).
Hit rate of the full screen: of about 73,000 compounds, about 1,800 (2.5%) were called active. This list was built around the results that the source calls inconclusive (neither active nor inactive); the mix of calls is not that of the screen. Calls follow the shape of the dose curve; as a rule, active = well fitted activation curve with a large enough effect; inconclusive = small, poorly fitted or top-dose-only effect; inactive = no such curve, though single readings can be large or run the other way. Potencies of inconclusive entries are left out as doubtful fits.

Test: qHTS Assay for Agonists of the Thyroid Stimulating Hormone Receptor: Activators of Intracellular cAMP Concentrations in Parental HEK 293; also: nearly all actives have a fitted effect of over 55% in size; as to activation: % of control where 0% means no effect
Settings: parental HEK293 CNG cAMP sensor, membrane potential fluorescence; activation: at 57.1 µM (top of the series) unless noted
Procedure, shortened: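 Parental HEK 293 cells stably expressing a modified CNG channel (no TSHR) report cAMP rise as membrane depolarization. Membrane potential dye with 100 uM RO 20-1724 was loaded for 60 min at room temperature, then compound added for 30 min; fluorescence read at 590 nm.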
Potency is read from the fitted curve at half-maximal effect; tags tell the direction and shape of the fitted curve.

Compound | Potency | activation
O=C(CSc1nc(-c2ccco2)cc(C(F)(F)F)n1)Nc1ccc2c(c1)CCC2 | inconclusive [activator, partial curve] | 
CCN(c1cccc(C(F)(F)F)c1)S(=O)(=O)c1ccc2c(c1)CCN2C(C)=O | inconclusive [activator, partial curve] | 
CCOC(=O)c1cnc(-n2nc(C)cc2C)nc1N(C)C | inactive | 
CCC(=O)c1ccc(N2CCN(C(=O)COc3ccc(F)cc3)CC2)c(F)c1 | inconclusive [activator, single point] | 
O=C(c1ccco1)N1CCN(CC(=O)N2CCCc3c2c(=O)oc2ccc(O)cc32)CC1 | inactive | 
Cc1cc(C(=O)CSc2nnc(C3COc4ccccc4O3)n2C)c(C)n1-c1ccc(F)cc1 (centres undefined) | active: 10 µM | 
Cc1nc2sc3c(c2c2nnc(SCC(=O)NCc4ccco4)n12)CCCC3 | inconclusive [activator, single point] | 
CC(=O)OC/C=C(C)/C=C/C=C(C)/C=C/C1=C(C)CCCC1(C)C |  | inconclusive: 43.7% [activator]
CN1C(=O)c2ccccc2N(C)C1c1ccc2c(c1)OCO2 (centres undefined) | inconclusive [activator, partial curve] | 
COc1ccc(-n2nc(C(=O)Nc3ccc4c(c3)OCO4)c3ccccc3c2=O)cc1 | active: 15.8 µM | 
C=CCC(CC=C)(C(=O)O)c1ccccc1 | inconclusive [activator, single point] | 
CCN(CC(=O)O)CC(=O)O |  | inactive: 20.3% [at 11.4 µM]
Cc1ccc(CN(Cc2cccnc2)C(=O)CN2C(=O)COc3ccccc32)o1 | inconclusive [activator, partial curve] | 
COCC(C)n1c(COc2ccccc2F)nnc1SCc1c(C)noc1C (centres undefined) | inconclusive [activator, partial curve] | 
CCOC(=O)CSc1nnc(CSc2nc(C)cc(C)n2)n1Cc1ccco1 | inconclusive [activator, single point] | 
CCN(CC)S(=O)(=O)c1ccc(C(=O)Oc2ccc3c(c2)OCO3)cc1 | inconclusive [activator, full curve, poor fit] | 
CC1(C)Cc2ccccc2-c2nnc(-c3cccnc3)n21 | inactive | 
Cn1cccc1C1(C(F)(F)F)NCCNC1=O (centres undefined) | inactive | 
CCSc1nc2c(c(=O)n1Cc1ccccc1)SC(C)C2 (centres undefined) | inconclusive [activator, single point] | 
COc1ccccc1-c1nc(C#N)c(N2CCN(c3cccc(Cl)c3)CC2)o1 | inconclusive [activator, partial curve] | 
S=c1nc(C2CC2)[nH]c2ccccc12 | inconclusive [activator, partial curve] | 
CCCn1c(=O)c2[nH]c(-c3ccccc3)nc2n(CCC)c1=O | inactive | 
c1cc2c(cc1-c1cnc3n1CCC3)OCCO2 | active: 20 µM | 

Compound | Potency | activation
COc1ccccc1Oc1nc2c(c(=O)n(Cc3ccccc3F)c(=O)n2C)n1C | inconclusive [activator, single point] | 
Cc1ccc(S(=O)(=O)N2CCC(C(=O)NCCCN3CCCCCC3)CC2)cc1 | inactive | 
Cc1cc(C(=O)COC(=O)c2ccc3c(c2)OCO3)c(C)n1Cc1cccs1 | inconclusive [activator, partial curve] | 
Cc1ccc2[nH]c3c(NCc4ccco4)ncnc3c2c1 | inconclusive [activator, partial curve] | 
O=c1c(-c2cccc(F)c2)nc2cncnc2n1-c1ccccc1 | inconclusive [activator, single point] | 
O=C(c1cc(-c2cccs2)on1)N1CCN(c2ccc(F)cc2)CC1 | inconclusive [activator, full curve, poor fit] | 
NCCC[C@@H](CC(=O)N[C@@H]1CCCC[C@H]1C(=O)N[C@H](CC(=O)N[C@@H](CCC(=O)O)CC(=O)O)Cc1c[nH]c2ccccc12)NC(=O)C[C@H](Cc1c[nH]c2ccccc12)NC(=O)[C@@H]1CNCC[C@H]1N | inactive | 
O=C(c1cc(-c2cccs2)on1)N1CCCc2ccccc21 | inconclusive [activator, single point] | 
CCN(CC)C(=O)C1CCN(S(=O)(=O)c2ccc3oc4ccccc4c3c2)CC1 | inconclusive [activator, single point] | 
CN(Cc1ccccc1)Cc1nc2c(c(=O)n(C)c(=O)n2C)n1Cc1ccccc1Cl | inconclusive [activator, partial curve] | 
COc1cc(C)nc(N2CCCC(C(=O)Nc3cccc(Cl)c3Cl)C2)n1 (centres undefined) | inconclusive [activator, single point] | 
Cc1cccc(C)c1NC(=O)C(NC=O)c1ccc(N(C)C)cc1 (centres undefined) | inconclusive [activator, partial curve, poor fit] | 
CCOC(=O)c1c(NC(=O)c2ccc(Br)o2)sc(C)c1CC | inconclusive [activator, partial curve] | 
Cc1cc2c(C)nc(-c3ccccc3)nc2o1 | inactive | 
CN(C)Cc1cc(C(C)(C)C)c(O)c(C(C)(C)C)c1 | inconclusive [activator, single point] | 
Cn1c(=N)n(CC(O)c2cccc3ccccc23)c2ccccc21 (centres undefined) | inconclusive [activator, full curve] | 
CC(C)c1cccc2c([Si](C)(C)C)c3c(nc12)-c1cccc(=O)n1C3 | active: 25.1 µM | 
Cc1ccc(NC(=O)N2CCC(C(N)=O)CC2)cc1 | inconclusive [activator, single point] | 
COc1cc(NS(=O)(=O)c2ccc(OC)c(C)c2C)c(OC)cc1Cl | inconclusive [activator, single point] | 
COc1ccc(OCc2nnc3n2N=C(c2ccc(C)cc2)CS3)cc1 | inconclusive [activator, single point] | 
Cc1[nH]c(C)c(CN(C)C)c1CN(C)C |  | inactive: -0.392% [at 11.4 µM]
CCOC(=O)c1cc2sc(C)cc2n1CC(=O)Nc1cccc(C)c1C | inconclusive [activator, partial curve] | 
O=C(Nc1cccc(-c2nnc(-c3ccccc3)o2)c1)c1ccco1 | inconclusive [activator, single point] | 

Compound | Potency | activation
CCOC(=O)c1c(NC(=O)CSc2nnc(-c3cccnc3)o2)sc(C(C)=O)c1C | inconclusive [activator, partial curve] | 
COc1nc(-c2ccccc2)ccc1-c1noc(-c2ccco2)n1 | inactive | 
Cc1cc(C(=O)CSc2nnc(N)s2)c(C)n1CCc1ccc(F)cc1 | inconclusive [activator, partial curve] | 
Cc1nc2ncnn2c(N2CCC(C(=O)NC3CCCC3)CC2)c1Cc1ccccc1 | inactive | 
C=CCn1c2ccccc2c2nnc(SCC(=O)NC(C(=O)OC)C(C)C)nc21 (centres undefined) | inactive | 
COc1ccc(OC)c(NC(=O)C(CC(C)C)NC(=O)C2CCCCC2)c1 (centres undefined) | inconclusive [activator, partial curve] | 
COc1ccc(-n2nnnc2SCC(=O)c2cc3ccccc3o2)cc1 | inconclusive [activator, single point] | 
CCOC(=O)N1CCN(C(=O)CSCC(=O)Nc2nc(-c3ccccc3)cs2)CC1 |  | inconclusive: 34.3% [activator]
COc1ccc([C@@H]2CNC(=O)C2)cc1OC1CCCC1 | inactive | 
CCOC(=O)CSc1nc2ccccc2c(=O)n1Cc1ccco1 | inconclusive [activator, partial curve] | 
CSCC[C@H](NC(=O)OC(C)(C)C)c1nnc(SCc2ccccc2)o1 | inconclusive [activator, single point] | 
CN(C)Cc1ccccc1-c1nc(NCc2ccccc2)c2ccccc2n1 | inconclusive [activator, full curve] | 
Nc1ccc(S(=O)(=O)Nc2ncccn2)cc1 | inconclusive [activator, single point] | 
S=C(NC1CCCCC1)N1CCC([C@H]2C=NC=N2)CC1 | inactive | 
Cc1noc(C(=O)NCc2ccco2)c1Cl | inconclusive [activator, partial curve, poor fit] | 
Cc1ccc(CNC(=O)c2cn(C3CCCCC3)c(=O)c3c2c2ccccc2n3C)o1 | inconclusive [activator, full curve, poor fit] | 
CCN(CC)S(=O)(=O)c1ccc(-c2nnc3sc4cccc(C)c4n23)cc1 | inconclusive [activator, single point] | 
O=C(Nc1cccc(C(F)(F)F)c1)c1cccnc1 | inconclusive [activator, single point] | 
C=CCNc1oc(COc2ccc(C)cc2)nc1C#N | inconclusive [activator, single point] | 
OC(COc1c(Br)cc(Br)cc1Br)CN1CCOCC1 (centres undefined) | inconclusive [activator, partial curve] | 
CCOC(=O)c1cccc(NC(=O)CSc2nc3ccccc3c(=O)n2CC)c1 | inconclusive [activator, single point] | 
COC(=O)[C@H](CCSC)NC(=O)C/C=C\[C@@H](C)[C@@H](CO)OC | inconclusive [activator, single point] | 
COc1cccc(C(c2nnnn2CCc2ccccc2)N2CCN(c3ccccc3)CC2)c1OC (centres undefined) | active: 7.94 µM | 
